Laboratory results taken from the supplement of paper PMC9542798.

Legend:
Test in all cases: minimum inhibitory concentration
Tetracycline = compound: CN(C)[C@@H]1C(O)=C(C(N)=O)C(=O)[C@@]2(O)C(O)=C3C(=O)c4c(O)cccc4[C@@](C)(O)[C@H]3C[C@@H]12 [Tetracycline]
Experimental: (§1)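 Broth microdilution MIC per ISO 10932 on precoated VetMIC Lact-1 plates (tylosin, vancomycin and ampicillin plates prepared manually) against lactic acid bacteria and bifidobacteria isolates. Plates were read visually after 48 h anaerobic incubation (bifidobacteria 72 h; enterococci and staphylococci 24 h aerobic) at species-specific temperatures of 30 or 37 °C. Values prefixed with < or > are outside the tested dilution range.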

Streptomycin = compound: CN[C@@H]1[C@H](O[C@H]2[C@H](O[C@H]3[C@H](O)[C@@H](O)[C@H](N=C(N)N)[C@@H](O)[C@@H]3N=C(N)N)O[C@@H](C)[C@]2(O)C=O)O[C@@H](CO)[C@H](O)[C@H]1O [Streptomycin]
Experimental: as §1

Neomycin = compound: NC[C@@H]1O[C@H](O[C@H]2[C@@H](O)[C@H](O[C@@H]3[C@@H](O)[C@H](N)C[C@H](N)[C@H]3O[C@H]3O[C@H](CN)[C@@H](O)[C@H](O)[C@H]3N)O[C@@H]2CO)[C@H](N)[C@@H](O)[C@@H]1O [Neomycin]
Experimental: as §1

Gentamicin = compound: CNC(C)C1CCC(N)C(OC2C(N)CC(N)C(OC3OCC(C)(O)C(NC)C3O)C2O)O1 [Gentamicin]
Experimental: as §1

Ampicillin = compound: CC1(C)S[C@@H]2[C@H](NC(=O)[C@H](N)c3ccccc3)C(=O)N2[C@H]1C(=O)O [Ampicillin]
Experimental: as §1

Clindamycin = compound: CCC[C@@H]1C[C@@H](C(=O)N[C@@H]([C@H]2O[C@H](SC)[C@H](O)[C@@H](O)[C@H]2O)[C@H](C)Cl)N(C)C1 [Clindamycin]
Experimental: as §1

Kanamycin = compound: NC[C@H]1O[C@H](O[C@H]2[C@H](O)[C@@H](O[C@H]3O[C@H](CO)[C@@H](O)[C@H](N)[C@H]3O)[C@H](N)C[C@@H]2N)[C@H](O)[C@@H](O)[C@@H]1O [Kanamycin]
Experimental: as §1

Chloramphenicol = compound: O=C(N[C@H](CO)[C@H](O)c1ccc([N+](=O)[O-])cc1)C(Cl)Cl [Chloramphenicol]
Experimental: as §1

Erythromycin = compound: CC[C@H]1OC(=O)[C@H](C)[C@@H](O[C@H]2C[C@@](C)(OC)[C@@H](O)[C@H](C)O2)[C@H](C)[C@@H](O[C@@H]2O[C@H](C)C[C@H](N(C)C)[C@H]2O)[C@](C)(O)C[C@@H](C)C(=O)[C@H](C)[C@@H](O)[C@]1(C)O [Erythromycin]
Experimental: as §1
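Also: isolates derived from commercial starter, protective, probiotic or feed-additive cultures, from fermented products, from human gut mucosa or feces, and from human milk or colostrum.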

Row | Test System | minimum inhibitory concentration (Tetracycline) | minimum inhibitory concentration (Streptomycin) | minimum inhibitory concentration (Neomycin) | minimum inhibitory concentration (Gentamicin) | minimum inhibitory concentration (Ampicillin) | minimum inhibitory concentration (Clindamycin) | minimum inhibitory concentration (Kanamycin) | minimum inhibitory concentration (Chloramphenicol) | minimum inhibitory concentration (Erythromycin)
1 | Limosilactobacillus fermentum IM846 (strain group: human milk or colostrum) | 4 µg/mL | 32 µg/mL | 4 µg/mL | 2 µg/mL | 1 µg/mL | 0.06 µg/mL | 64 µg/mL | 8 µg/mL | 0.25 µg/mL
2 | Lactiplantibacillus plantarum IM1009 (strain group: non-starter strains) | 8 µg/mL | 32 µg/mL | 4 µg/mL | 4 µg/mL | 1 µg/mL | 8 µg/mL | 64 µg/mL | 4 µg/mL | 0.5 µg/mL
3 | Pediococcus pentosaceus IM1089 (strain group: non-starter strains) | 32 µg/mL | 64 µg/mL | 8 µg/mL | 8 µg/mL | 4 µg/mL | 0.06 µg/mL | 256 µg/mL | 8 µg/mL | 0.5 µg/mL
4 | Lactiplantibacillus plantarum IM1031 (strain group: non-starter strains) | 16 µg/mL | 64 µg/mL | 8 µg/mL | 8 µg/mL | 2 µg/mL | 1 µg/mL | 256 µg/mL | 8 µg/mL | 0.5 µg/mL
5 | Lacticaseibacillus paracasei IM698 (strain group: human intestinal mucosa or faeces) | 2 µg/mL | 16 µg/mL | 8 µg/mL | 4 µg/mL | 1 µg/mL | 0.25 µg/mL | 32 µg/mL | 8 µg/mL | 0.25 µg/mL
6 | Limosilactobacillus fermentum IM690 (strain group: human intestinal mucosa or faeces) | 16 µg/mL | 64 µg/mL | 4 µg/mL | 2 µg/mL | 0.5 µg/mL | 0.06 µg/mL | 128 µg/mL | 8 µg/mL | 0.5 µg/mL
7 | Lacticaseibacillus casei IM1120 (strain group: non-starter strains) | 1 µg/mL | 16 µg/mL | 8 µg/mL | 4 µg/mL | 2 µg/mL | 0.5 µg/mL | 64 µg/mL | 4 µg/mL | 0.25 µg/mL
8 | Limosilactobacillus reuteri IM843 (strain group: human milk or colostrum) | > 64 µg/mL | 16 µg/mL | 1 µg/mL | 2 µg/mL | > 16 µg/mL | 0.12 µg/mL | 64 µg/mL | 4 µg/mL | 0.5 µg/mL
9 | Limosilactobacillus fermentum IM818 (strain group: human milk or colostrum) | 8 µg/mL | 32 µg/mL | 2 µg/mL | 2 µg/mL | 1 µg/mL | 0.06 µg/mL | 64 µg/mL | 8 µg/mL | 0.5 µg/mL
10 | Lactiplantibacillus plantarum IM1159 (strain group: non-starter strains) | 8 µg/mL | 64 µg/mL | 8 µg/mL | 8 µg/mL | 2 µg/mL | 4 µg/mL | 128 µg/mL | 4 µg/mL | 0.5 µg/mL
11 | Lacticaseibacillus paracasei IM695 (strain group: human intestinal mucosa or faeces) | 2 µg/mL | 16 µg/mL | 2 µg/mL | 1 µg/mL | 1 µg/mL | 0.12 µg/mL | 16 µg/mL | 4 µg/mL | 0.12 µg/mL
12 | Lacticaseibacillus paracasei IM1354 (strain group: non-starter strains) | 1 µg/mL | 16 µg/mL | 8 µg/mL | 4 µg/mL | 2 µg/mL | 0.25 µg/mL | 64 µg/mL | 4 µg/mL | 0.25 µg/mL
13 | Lactiplantibacillus plantarum IM1333 (strain group: non-starter strains) | 16 µg/mL | 16 µg/mL | 1 µg/mL | 1 µg/mL | 1 µg/mL | 2 µg/mL | 32 µg/mL | 4 µg/mL | 1 µg/mL
14 | Lacticaseibacillus paracasei IM1280 (strain group: non-starter strains) | 1 µg/mL | 16 µg/mL | 4 µg/mL | 4 µg/mL | 1 µg/mL | 0.25 µg/mL | 64 µg/mL | 4 µg/mL | 0.12 µg/mL
15 | Lactiplantibacillus plantarum IM1032 (strain group: non-starter strains) | 16 µg/mL | 64 µg/mL | 8 µg/mL | 8 µg/mL | 0.5 µg/mL | 1 µg/mL | 256 µg/mL | 8 µg/mL | 0.5 µg/mL
16 | Lactiplantibacillus plantarum IM1021 (strain group: non-starter strains) | 8 µg/mL | 64 µg/mL | 4 µg/mL | 4 µg/mL | 1 µg/mL | 0.5 µg/mL | 128 µg/mL | 8 µg/mL | 0.5 µg/mL
17 | Leuconostoc mesenteroides IM1378 (strain group: starter cultures) | 2 µg/mL | 4 µg/mL | < 0.5 µg/mL | < 0.5 µg/mL | 1 µg/mL | 0.5 µg/mL | 4 µg/mL | 2 µg/mL | 0.5 µg/mL
18 | Pediococcus acidilactici/pentosaceus/lolli IM719 (strain group: human milk or colostrum) | 32 µg/mL | 64 µg/mL | 16 µg/mL | 8 µg/mL | 4 µg/mL | 0.12 µg/mL | 256 µg/mL | 8 µg/mL | 0.5 µg/mL
